Measurements taken from PubChem BioAssay (NCATS).
Values joined by “and” are separate entries in the source; they are usually repeats but may differ in a detail not shown here. Equal entries are not always repeated. Inconclusive means that the source gave no clear call. Such entries were picked first, then a sample of the others. Potencies beside an inconclusive call are fits to weak or partial responses and may not hold up. Active and inactive are the calls of the source. The call rests on the fitted dose curve; in most records, active means well fitted inhibition curve with a large enough effect in the repeat runs; inconclusive means weak or mixed curves; inactive means no such curve, though single readings can be large or run the other way.

Target: Cytochrome P450 2C9 (Homo sapiens) (UniProt P11712)
Test: Cytochrome P450 family 2 subfamily C member 9 (CYP2C9) small molecule antagonists: luciferase biochemical (cell-free) qHTS assay (AID 1645842); further: nearly all actives have a fitted effect of over 55% in size
Settings: P450-Glo CYP2C9 enzyme assay, luciferin luminescence; series mostly up to 57.4 µM; activity change, negative = inhibition: at the top concentration
Procedure, shortened: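 P450-Glo CYP2C9 system: proluciferin substrate with enzyme in mix containing 0.4% BSA, 10 min at room temperature, then NADPH regeneration solution added and incubated 1 h at 37C. Detection reagent stopped reaction; luminescence read after 20 min as RLU.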
On the % scale 0 is the no-effect control and ±100 the full control effect; potency means the concentration at half of the fitted maximal effect; tags describe the fitted curve by direction and shape.

Sequence of UniProt P11712 (P11712 whole entry, looked up): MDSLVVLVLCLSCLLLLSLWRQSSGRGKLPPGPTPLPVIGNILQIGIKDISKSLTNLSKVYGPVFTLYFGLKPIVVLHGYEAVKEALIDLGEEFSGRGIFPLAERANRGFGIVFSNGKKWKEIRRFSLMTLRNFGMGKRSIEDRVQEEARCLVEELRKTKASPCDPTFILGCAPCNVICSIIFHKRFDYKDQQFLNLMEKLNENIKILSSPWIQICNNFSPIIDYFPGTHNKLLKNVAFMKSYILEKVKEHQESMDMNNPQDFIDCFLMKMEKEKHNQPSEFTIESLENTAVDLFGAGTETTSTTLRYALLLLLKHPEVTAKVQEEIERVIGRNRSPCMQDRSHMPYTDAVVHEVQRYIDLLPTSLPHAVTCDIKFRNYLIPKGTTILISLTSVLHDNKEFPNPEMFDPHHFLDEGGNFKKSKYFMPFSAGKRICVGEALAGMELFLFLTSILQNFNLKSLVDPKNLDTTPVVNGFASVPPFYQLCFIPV

With S=c1[nH]c2ccccc2s1 as the molecule, how does the Potency read?
The Potency was active: 15.9 µM.

How did the Potency turn out when Cc1ccc2c(n1)Oc1ccc(C(C)C(=O)OCC(=O)N(C)C)cc1C2 (stereo not drawn) was run?
The Potency was inconclusive: 17.4 µM [inhibitor, single point] and inconclusive: 13.8 µM [inhibitor, partial curve].

Which Potency does the source give for COc1ccc(-c2cc(=S)ss2)cc1 here?
The Potency was active: 11 µM.

CCCC(=O)OC[C@@H](OC(=O)CCC)[C@@H](OC(=O)CCC)[C@H](Cn1c2nc(=O)[nH]c(=O)c-2nc2cc(C)c(C)cc21)OC(=O)CCC was tested. Which Potency did it give?
The Potency was inconclusive: 12.3 µM [inhibitor, partial curve].

Which “activity change, negative = inhibition” value does the source give for Cc1ccnc2c1NC(=O)c1cccnc1N2C1CC1 here?
The value was inactive: -11.7%.

CCC[C@@H]1C[C@@H](C(=O)N[C@@H]([C@H]2O[C@H](SC)[C@H](O)[C@@H](O)[C@H]2O)[C@@H](C)O)N(C)C1 was tested. Which “activity change, negative = inhibition” value did it give?
The value was inactive: 1.2%.

Which Potency does the source give for CC(=O)Oc1cc2c(s1)CCN(C(C(=O)C1CC1)c1ccccc1F)C2 (stereo not drawn) here?
The Potency was active: 4.36 µM and active: 4.25 µM.

With C#CC1(O)CC[C@H]2[C@@H]3CCC4=CCCC[C@@H]4[C@H]3CC[C@@]21C (stereo partly drawn) as the molecule, how does the Potency read?
The Potency was active: 1.74 µM.

Which “activity change, negative = inhibition” value does the source give for O=C(O)CCC(=O)c1ccc(-c2ccccc2)cc1 here?
Its value is inactive: 0.204%.

With O=C1c2ccccc2C(=O)c2c1ccc(O)c2O as the molecule, how does the Potency read?
The Potency was inconclusive: 17.4 µM [inhibitor, single point].

How did the Potency turn out when O[C@@H](COc1cccc2ncccc12)CN1CCN(C2c3ccccc3[C@@H]3[C@H](c4ccccc42)C3(F)F)CC1 (stereo partly drawn) was run?
Its Potency is inconclusive: 15.5 µM [inhibitor, partial curve].

CN(C(=O)C(Cl)Cl)c1ccc(OC(=O)c2ccco2)cc1 was tested. Which Potency did it give?
The Potency was inconclusive: 38.9 µM [inhibitor, single point].

How did the Potency turn out when Cc1ccc(C)c(OCCCC(C)(C)C(=O)O)c1 was run?
Its Potency is inconclusive: 27.5 µM [inhibitor, single point].

Which Potency does the source give for CC1=C(CC(=O)O)c2cc(F)ccc2/C1=C\c1ccc(S(C)=O)cc1 (stereo not drawn) here?
Its Potency is inconclusive: 27.5 µM [inhibitor, single point].

How did the Potency turn out when CC(=O)SCC(CC(=O)c1ccc(C)cc1)C(=O)O (stereo not drawn) was run?
Its Potency is inconclusive: 34.7 µM [inhibitor, single point].

Which “activity change, negative = inhibition” value does the source give for CC(=C(CCOC(=O)C(C)C)SSC(CCOC(=O)C(C)C)=C(C)N(C=O)Cc1cnc(C)nc1N)N(C=O)Cc1cnc(C)nc1N here?
The value was inactive: 2.39%.

With Cc1cc(O)c2ccccc2c1O as the molecule, how does the Potency read?
The Potency was inconclusive: 27.5 µM [inhibitor, single point].

For NCCO, which “activity change, negative = inhibition” value is on record?
The value was inactive: 11.1% [at 115 µM].

Which Potency does the source give for CCOc1ccc2nc(S(N)(=O)=O)sc2c1 here?
Its Potency is inconclusive: 24.5 µM [inhibitor, single point].

For Cc1cc(C)c(/C=C2\C(=O)Nc3ccccc32)[nH]1, which Potency is on record?
Its Potency is active: 9.77 µM.

Which Potency does the source give for O=Nc1c(-c2c(O)[nH]c3cc(Br)ccc23)[nH]c2ccccc12 here?
The Potency was inconclusive: 26.8 µM [inhibitor, single point].

C=C(c1ccc(C(=O)O)cc1)c1cc2c(cc1C)C(C)(C)CCC2(C)C was tested. Which Potency did it give?
Its Potency is inconclusive: 43.6 µM [inhibitor, single point].

Which Potency does the source give for CC(C)C(=O)Nc1ccc([N+](=O)[O-])c(C(F)(F)F)c1 here?
The Potency was inconclusive: 27.5 µM [inhibitor, single point].

Which “activity change, negative = inhibition” value does the source give for C=Cc1c(C)c2cc3[nH]c(cc4nc(cc5nc(cc1[nH]2)C(C)=C5CCC(=O)O)C(CCC(=O)O)=C4C)c(C)c3C=C here?
The value was inactive: -1.57%.

Cc1[nH]c(=O)c(C#N)cc1-c1ccncc1 was tested. Which Potency did it give?
The Potency was inconclusive: 15.5 µM [inhibitor, partial curve].

How did the Potency turn out when C[C@H](NC(=O)c1sccc1OCc1ccc(Cl)cc1)c1ccccc1 was run?
Its Potency is active: 0.952 µM.

For Cc1ccc(N)cc1O, which Potency is on record?
Its Potency is active: 20 µM.

For O=C(O)c1ccccc1NCCc1ccccc1, which Potency is on record?
Its Potency is inconclusive: 21.9 µM [inhibitor, single point].

For Cc1cc2c(s1)Nc1ccccc1N=C2N1CCN(C)CC1, which Potency is on record?
The Potency was “inactive”.

How did the “activity change, negative = inhibition” value turn out when CN(C)c1cc(NC(=O)CNC(C)(C)C)c(O)c2c1C[C@@H]1C[C@H]3[C@H](N(C)C)C(=O)C(C(N)=O)=C(O)[C@@]3(O)C(=O)C1=C2O was run?
Its value is inactive: -13.2%.

With CC(=O)OC(C)OC(=O)C(C)c1ccc(-c2ccccc2)c(F)c1 (stereo not drawn) as the molecule, how does the Potency read?
Its Potency is active: 9.77 µM.

With Cc1ccc(-n2nc(C(C)(C)C)cc2NC(=O)Nc2ccc(OCCN3CCOCC3)c3ccccc23)cc1 as the molecule, how does the Potency read?
The Potency was active: 9.77 µM.

With Cc1nc(-c2ccc(OCC(C)C)c(C#N)c2)sc1C(=O)O as the molecule, how does the Potency read?
The Potency was inconclusive: 27.5 µM [inhibitor, single point].
